Read counts are not given, so values of variants with three or more changes are uncertain.
B1: CPEB3 Ribozyme (parent)
chain: UAACAGGGGGCCACAGCAGAAGCGUUCACGUCGCAGCCCCUGUCAGAUUCUGGUGAAUCUGCGAAUUCUGCUGUAUAUCUC

Variants of: B1
Assay: self-cleavage, relative activity (ratio to wild type); higher = more cleavage; in vitro, sequencing
In short: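 Barcoded CPEB3 ribozyme mutants, produced by rounds of error-prone PCR, self-cleaved while being transcribed with T7 RNA polymerase for 5 hours at 37°C and during a subsequent 15 min DNase I step before EDTA was added. Sequencing of template-switched cDNA on Illumina gave cleaved and total reads, and DNA sequencing assigned barcodes to variants. Each variant's relative activity is its cleaved/total read fraction divided by the unmutated ribozyme's fraction, averaged across three batches. A variant needed a minimum of 5 reads.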

Row | Variant | self-cleavage
1 | UAACAGGGGGCUACAGCAGAAGCGUUCACGUCGCAGCCCCUGUCAGAUUUUGGUGAAUCUGCGAAUGCCGCUGUAUAUCUC [C12U C50U U67G U69C] | 0.24
2 | UAACAGGGGGCUACAACAGAAGCGUUCACGUCGCAGCCCCCGUCAGGUUCUGGUGAAUCUGCGAAUUCUGCUGUAUAUCUC [C12U G16A U41C A47G] | 0.76
3 | UAACAGGGGGCUACAACAGAAGCGUUCACGUCGCAGCCCCUGUCAGAUUCUGGUGAAUCCGCGAAUUCUGCUGUAUAUCUC [C12U G16A U60C] | 0.13
4 | UAACAGGGGGCUACAGCAUAAGCGUUCACGUCGCAGCCCCUGUCAGAUUCAGGUGAAUCUGCGAAUUCUGCAGUAUAUCUC [C12U G19U U51A U72A] | 0.19
5 | UAACAGGGGGCUACAGCAUAAGCGUUCACGUCGCAGCCCCUGUCAGAUUCCGGUGAAUCUGCAAAUUCUGCUGUAUAUCCC [C12U G19U U51C G63A U80C] | 0.15
6 | UAACAGGGGGCUACAGCAGAAGCUUUCACGUCACAGCCCCAGUCUGAUUCUGGUGAAUCUGCGAAUUCUGCUGUAUAUCUC [C12U G24U G33A U41A A45U] | 0.05
7 | UAACAGGGGGCUACAGCAGAAGCUUCCACGUCACAGCCCCUGUCAGAUUCUGGUGAAUCUGCGAAUUCUGCUGUAUAUCUC [C12U G24U U26C G33A] | 0.12
8 | UAACAGGGGGCUACAGCAGAAGCGUUCACGUCGCAGCCCCUGUCAGAUUCUGGUGAAUCUGCCAUUUCAGCUGUAUAUCUC [C12U G63C A65U U69A] | 0.36
9 | UAACAGGGGGCUACAGCAGAAGCGAUCACGUCGCAGCCCCUGUCAGAUGCUGGUGAAUCUGCGAAUUCUGCUGUAUAUCUC [C12U U25A U49G] | 0.17
10 | UAACAGGGGGCUACAGCAGAAGCGCUCACGUAGCAGCCCCUGUCAGAUUCUGGUGAGUCUGCGAACUCUGCAGUAUAUCUC [C12U U25C C32A A57G U66C U72A] | 0.04
11 | UAACAGGGGGCUACAGCAGAAGCGCUCACGACGCAGCCCCUGUCAGACUCUGGUGAAUCUGCGAAUUCUGCUGUAUAUCUC [C12U U25C U31A U48C] | 0.18
12 | UAACAGGGGGCUACAGCAGAAGCGCUCACGUCGCAGCCCCUGUCAGAAUCUGGUGAAUCUGCGAAUUCUGCUGUAUAUCUC [C12U U25C U48A] | 0.25
13 | UAACAGGGGGCUACAGCAGAAGCGUCCACGUCGCAGCCCCUGUCGGAUUCUGGUGAAUCCGCGAAUUCUGCCGUAUAUCUC [C12U U26C A45G U60C U72C] | 0.89
14 | UAACAGGGGGCUACAGCAGAAGCGUCCACGUCGCAGCCCCUGUCAGGUUCUGGUGAAUCUGCGAAUUCUGCUGUAUAUCUC [C12U U26C A47G] | 0.69
15 | UAACAGGGGGCUACAGCAGAAGCGUCCACGUCGCAGCCCCUGUCAGAUUCUGGUGGAUCCGCGAAUACUGCAGUAUAUCUC [C12U U26C A56G U60C U67A U72A] | 0.15
16 | UAACAGGGGGCUACAGCAGAAGCGUCCACGUCGCAGCCCCCGUCAGGUUCUGGUGAAUCUGCGGAUUCUGCUGUAUAUCUC [C12U U26C U41C A47G A64G] | 0.35
17 | UAACAGGGGGCUACAGCAGAAGCGUCCACGUCGCAGCCCCUGUCAGAUUCUGGUGAAUCUGCGAAUUCUGCCGUAUAUCUC [C12U U26C U72C] | 0.84

Row | Variant | self-cleavage
18 | UAACAGGGGGCUACAGCAGAAGCGUCCACGUCGCAGCCCCUGUCAGAUUCUGGUGAAUCUGCGAAUUCUGCUGUAAAUCUC [C12U U26C U76A] | 1.02
19 | UAACAGGGGGCUACAGCAGAAGCGUUCACGACGCAGCCCUUGUCAGAUUCUGGUGAAUCUGCGAAUUCUGCUGUAUAUCUC [C12U U31A C40U] | 0.46
20 | UAACAGGGGGCUACAGCAGAAGCGUUCACGUCGCAGCCCCAGUCAGAUUCUGGUGAAUCUGCGAGUUCUGCUGUAUAUCUC [C12U U41A A65G] | 0.11
21 | UAACAGGGGGCUACAGCAGAAGCGUUCACGUCGCAGCCCCAGUCAGAUUCCGGUGAAUCUGCGAAUUCCGCUGUAUAUCUC [C12U U41A U51C U69C] | 0.06
22 | UAACAGGGGGCUACAGCAGAAGCGUUCACGUCGCAGCCCCCGUCAGAUUCUGGUGAAUCUGCGAAUUCCGCCGUAUAUCUC [C12U U41C U69C U72C] | 0.58
23 | UAACAGGGGGCUACAGCAGAAGCGUUCACGUCGCAGCCCCUGACGGGUUCUGGUGAAACUGCGAAUCCUGCCGUAUAUCUC [C12U U43A A45G A47G U58A U67C U72C] | 0.1
24 | UAACAGGGGGCUACAGCAGAAGCGUUCACGUCGCAGCCCCUGACAGAUUCUGGUGAAUCUGCGAAUCCUGCUGUAUAUCUC [C12U U43A U67C] | 0.42
25 | UAACAGGGGGCUACAGCAGAAGCGUUCACGUCGCAGCCCCUGCCAGAUUCUGGUGAGUCUGCGAAUACUGCUGUAUAUCUC [C12U U43C A57G U67A] | 0.2
26 | UAACAGGGGGCUACAGCAGAAGCGUUCACGUCGCAGCCCCUGCCAGAUUCUGGUGAAUAUGCGAAUUCUGCUGUACAUCUC [C12U U43C C59A U76C] | 0.09
27 | UAACAGGGGGCUACAGCAGAAGCGUUCACGUCGCAGCCCCUGUCAGAUACUGGUGAAUCUGCGGAUUCUGCUGUAUAUCUC [C12U U49A A64G] | 0.5
28 | UAACAGGGGGCUACAGCAGAAGCGUUCACGUCGCAGCCCCUGUCAGAUCCUGGUGAAUCUGUGAAUUCUGCUGUAUAUCUC [C12U U49C C62U] | 0.05
29 | UAACAGGGGGCUACAGCAGAAGCGUUCACGUCGCAGCCCCUGUCAGAUUCCGGUGAGUCUGCGAAUUCUGCGGUAUCUCUC [C12U U51C A57G U72G A77C] | 1.14
30 | UAACAGGGGGCUACAGCAGAAGCGUUCACGUCGCAGCCCCUGUCAGAUUCGGGUGAAUCUGCGGAUUCUGCUGUAUAUCUC [C12U U51G A64G] | 1.24
31 | UAACAGGGGGCCCCGGCAGGAGCGUUCACGUCGCAGCCCCUGUCAGAUUCUGGCGAAUCUGCGAAUUCUGCUGUAUAUCUC [A13C A15G A20G U54C] | 0.73
32 | UAACAGGGGGCCCCGGGAGAGGCGUUCACGUCGCAGCCCCUGUCAGAUUCUGGUGAAUCUGCGAAUUCUGCUGUAUACCUC [A13C A15G C17G A21G U78C] | 0.11
33 | UAACAGGGGGCCCCGGCAGAAGCGUUCACGUCGCAGCCCAAGUCAGAUUCUGGCGAAUCUGCGGAUUCUGCUGUAUAUCUC [A13C A15G C40A U41A U54C A64G] | 0.07
34 | UAACAGGGGGCCCCUGCAGAAGCGUUCACGUCGCAGCCCCUGUCAGAUUCUGGUGUAUCUGCGAAUUCUGCUGUAUAUCUC [A13C A15U A56U] | 0.38
